# From PubChem BioAssay AID1347073 (National Center for Advancing Translational Sciences (NCATS), 2019)
# Among all 45,000 compounds or so, about 200 (0.44%) were called active. Roughly 7% stayed inconclusive and do not appear here. Calls follow the shape of the dose curve; as a rule, active = well fitted activation curve with a large enough effect; inconclusive = small, poorly fitted or top-dose-only effect; inactive = no such curve, though single readings can be large or run the other way. Some of the results follow.
# Test: qHTS of TDP-43 Inhibitors: NCGC Sytravon Library Screen; also: 0% is about no effect; nearly all actives have a fitted effect of over 55% in size
# Details: yeast TDP-43 toxicity rescue, BacTiter-Glo growth, 24 h; series mostly up to 46.1 µM; growth rescue (activation): at the top concentration
# Procedure, shortened: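 TDP-43-expressing yeast, pregrown in raffinose, seeded at OD600 0.02 in galactose medium with compound for 24 hr at 30 deg C. Growth read by BacTiter-Glo luminescence, so rescue of toxicity appears as activation.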
row,Structure (SMILES),growth rescue (activation)
1,O=C(NCc1n[nH]c(=S)n1-c1ccc(F)cc1)c1ccc(S(=O)(=O)N2CCCCC2)cc1,inactive: 7.99%
2,O=C(CSc1nnc(C2CC2)n1-c1ccccc1)N1CCCC1,inactive: -2.32%
3,Cc1cccc(NC(=O)CCNC(=O)c2ccc(Br)cc2)c1C,inactive: -2.26%
4,O=C(Cc1ccc(Cl)cc1)Nc1ccc(CN2CCCCC2)cc1,inactive: 14.9%
5,COc1cccc(NC(=O)N2CCCC2C(=O)NC2CCCC2)c1 (stereo not drawn),inactive: -17.7%
6,COc1cccc(C2=NOC(C(=O)NCc3cccnc3)C2)c1 (stereo not drawn),inactive: 10.4%
7,CCc1cccc(NC(=O)C2CCCN2C(=O)Nc2ccc(C)cc2)c1 (stereo not drawn),inactive: 24.5%
8,CC(=O)c1ccc(NC(=O)C(C)OC(=O)c2ccc(NS(=O)(=O)c3ccc4[nH]c(=O)[nH]c4c3)cc2)cc1 (stereo not drawn),inactive: 0.869%
9,CC(=O)Oc1ccc(CC(C(=O)O)N2C(=O)c3ccccc3C2=O)cc1 (stereo not drawn),inactive: 1.69%
10,O=C(COC(=O)c1ccc(F)cc1)Nc1ccc(Cl)cn1,inactive: 1.45%
11,CCc1ccc(C(C(=O)NC2CCCC2)N(CCOC)C(=O)CCC(=O)Nc2cc(C)on2)cc1 (stereo not drawn),inactive: -19.6%
12,CCOC(=O)CSc1nc2c(sc(=S)n2-c2ccc(CC)cc2)c(=O)[nH]1,inactive: -3.53%
13,COc1cc(OC)cc(Oc2ccc(S(=O)(=O)N3CCCCC3)cc2[N+](=O)[O-])c1,inactive: 8.35%
14,O=C(CN1c2cccc3cccc(c23)S1(=O)=O)Nc1c(F)c(F)c(F)c(F)c1F,inactive: -16.9%
15,CC(=O)Nc1ccc(C(=O)OCC(=O)NCc2ccc3c(c2)OCO3)cc1,inactive: 17.8%
16,CCc1cc(OCCCCNCc2ccccc2)ccc1Cl,inactive: -12.9%
17,CC(=O)N1CCc2cc(Br)cc(S(=O)(=O)NCc3ccc(Cl)cc3)c21,inactive: 16.5%
18,CCC(CO)NC1=CC(=O)CCC1 (stereo not drawn),inactive: -4.26%
19,COc1cccc(C(=O)N(Cc2ccc(C)o2)C2CCS(=O)(=O)C2)c1 (stereo not drawn),inactive: 6.06%
20,CSc1ccccc1NC(=O)CN(C)C(=O)COc1ncnc2ccccc12,inactive: 25.3%
21,COC(=O)[C@@H](NC(=O)NCCC1=CCCCC1)C(C)C,inactive: -8.46%
22,CC(C)Oc1ccc(F)cc1-c1cc(C(=O)NCc2cc(C(F)(F)F)cc(C(F)(F)F)c2)[nH]n1,inactive: -0.303%

row,Structure (SMILES),growth rescue (activation)
1,Cc1nnsc1NC(=O)OCc1ccc(C(F)(F)F)cc1,inactive: 7.48%
2,O=C(Cc1ccccc1)NNS(=O)(=O)c1ccccc1[N+](=O)[O-],inactive: 2.85%
3,CCCCOc1ccc(C(=O)NCC(=O)NC2CC2)cc1,inactive: 22.2%
4,COc1ccc(NC(=S)N2CCC(N(C)CC3CCCO3)CC2)cc1 (stereo not drawn),inactive: -0.628%
5,O=C(Nc1cccc2ccccc12)N1CCN(c2ccc(F)cc2)CC1,inactive: 0.003%
6,CN(C)c1cc(Nc2cccc(O)c2)c([N+](=O)[O-])c2nonc12,inactive: -5.55%
7,O=C(/C=C/c1cccs1)N1CCCCC1,inactive: -8.02%
8,Cc1cccc(N(C(=O)Cn2nnc(-c3ccc(F)cc3)n2)C(C(=O)NC(C)(C)C)c2ccncc2)c1 (stereo not drawn),inactive: -14.1%
9,Cc1nc(NCc2cccnc2)c2c3c(sc2n1)CC(C)CC3 (stereo not drawn),inactive: 2.36%
10,COc1ccc(S(=O)(=O)N(C)C)cc1NC(=O)CSc1nc(N)cc(N)n1,inactive: 12.3%
11,COCCCNCC#CCOc1ccc(OC)cc1,inactive: 4.91%
12,CCc1ccccc1N(CC(=O)NCc1ccco1)C(=O)CCC(=O)Nc1ccccn1,inactive: 9.03%
13,OC[C@@H]1CN(CCN2CCOCC2)C[C@H](n2cnc3c(NC4CC4)ncnc32)O1,inactive: -16.2%
14,COc1cc(NC(=O)c2cc(C)no2)cc(OC)c1OC,inactive: 4.47%
15,OC1(c2ccc(Cl)c(Cl)c2)C[n+]2ccccc2N1Cc1ccccc1 (stereo not drawn),inactive: -27%
16,COc1ccc(S(=O)(=O)c2cnc3ccccc3n2)cc1,inactive: 18%
17,Cc1cccc(NC(=S)NC(=O)/C=C/c2ccccc2)n1,inactive: 1.61%
18,Cc1cccc(C)c1NC(=O)CNC(=O)c1c(C)nn(C)c1Cl,inactive: 3.57%
19,Cc1ccccc1CN1CCNC(=O)C1CC(=O)NCCN1CCCCC1=O (stereo not drawn),inactive: 15.6%
20,COc1ccccc1-c1noc(-c2ccccc2C(=O)NCc2ccco2)n1,inactive: 4.32%
21,O=C(Cc1nnc(NC(=O)Nc2ccc(F)cc2)s1)NCc1ccccc1,inactive: 4.65%
22,NS(=O)(=O)c1ccc(NC(=O)COC(=O)CCCN2C(=O)c3cccc4cccc(c34)C2=O)cc1,inactive: -6.49%

row,Structure (SMILES),growth rescue (activation)
1,CCS(=O)(=O)N1CCC(C(=O)NCc2ccc3c(c2)OCO3)CC1,inactive: 3.02%
2,Cc1[nH]c2ccccc2c1/C=N/NC(=O)C1CC1(c1ccccc1)c1ccccc1 (stereo not drawn),inactive: -12%
3,CN(C)C(=O)CSc1ccc(S(=O)(=O)N2CCCC2)cn1,inactive: 21.2%
4,CC(C)C(=O)Nc1sc2c(c1-c1nc3ccccc3[nH]1)CCCC2,inactive: 6.9%
5,COc1cc(NC(=S)NN2CCOCC2)cc(OC)c1,inactive: 18.8%
6,CC(C)COC(=O)N1CCCC(c2cc(C(=O)Nc3ccccc3Cl)no2)C1 (stereo not drawn),inactive: 24.2%
7,COc1ccc(/C=N/NC(=O)c2cc(C)oc2C)cc1OC,inactive: 5.05%
8,NC(=O)c1ccsc1NC(=O)CSc1nnc2ccccn12,inactive: -4.57%
9,Cc1ccc(OCc2cccc(S(=O)(=O)N(C)C)c2)c([N+](=O)[O-])n1,inactive: 21.2%
10,COC(=O)CC1C(=O)NC2CCCCC2N1C(=O)CCl (stereo not drawn),inactive: 2.16%
11,Cc1nc(C(=O)O)nn1-c1cc(Cl)ccc1Cl,inactive: 0.0992%
12,CC(C)CC1=C/C(=C/c2ccc(-c3ccccc3)o2)C(=O)O1,inactive: 2.87%
13,COc1ccc(OC)c(NC(=O)CSc2ncnc3sc(C)cc23)c1,inactive: -1.18%
14,CCOC(=O)N1CCN(c2ccc([N+](=O)[O-])cc2)CC1,inactive: 19.1%
15,CC(C)Oc1cccc(C(=O)NC(=S)Nc2cccc(NC(=O)c3ccccc3Cl)c2)c1,inactive: 4.69%
16,CCNc1nc(SC(C(C)=O)C(C)=O)nc(N(C)C)n1,inactive: 18.7%
17,NS(=O)(=O)c1ccc(NC(=O)c2cc(Cl)ccc2Cl)cc1,inactive: -26.2%
18,O=c1[nH]c(=S)[nH]c2c1C(c1ccc(Br)cc1)c1c([nH]c(=S)[nH]c1=O)O2,inactive: -12.6%
19,COc1ccccc1-c1noc(CCCC(=O)NC2CCCCC2)n1,inactive: -9.19%
20,Cc1ccc(S(=O)(=O)N2CCCCC2)cc1NC(=O)CSc1nnnn1C,inactive: -26%
21,COc1ccc(CNC(=O)c2ccc(Cn3nc(C)c([N+](=O)[O-])c3C)o2)cc1,inactive: 6.01%
22,CCOC(=O)C1(C)CCN1C(=O)c1cc(F)ccc1C (stereo not drawn),inactive: 11.1%

row,Structure (SMILES),growth rescue (activation)
1,CC(=O)N1CCN(C(=O)C2(NC(=O)Nc3ccccc3Cl)CCCCC2)CC1,inactive: 10.3%
2,Nc1ccc2nc(Cc3ccccc3)[nH]c2c1,inactive: -7.78%
3,NNc1nc2sc3c(c2c(=O)n1-c1ccccc1)CCCC3,inactive: 2.22%
4,CCOc1cccc(-c2cc(N3CCN(CCO)CC3)n3nccc3n2)c1,inactive: 7.01%
5,CCOc1ccc(S(=O)(=O)N(CC)CC(=O)NCc2ccncc2)cc1,inactive: -2.5%
6,COc1ccc(N(CC(=O)NCCSc2ccccc2)S(C)(=O)=O)cc1,inactive: 6.9%
7,CCC(=O)N1c2ccc(C)cc2C2=NNC(=S)NC21O (stereo not drawn),inactive: 12.5%
8,CN(C)S(=O)(=O)c1cccc(NC(=O)COC(=O)/C=C/c2ccco2)c1,inactive: -16.9%
9,Cn1c(Nc2ccc(F)cc2)nc2cc(-c3ccsc3)sc2c1=O,inactive: 24.2%
10,CCOc1ccc(S(=O)(=O)NCc2ccc(OC)cc2)c2cccnc12,inactive: -15.7%
11,COc1ccc(CN2CCNC(=O)C2CC(=O)N(Cc2nccn2C)C(C)C)c(OC)c1 (stereo not drawn),inactive: -2.21%
12,CC(C)C(=O)N1CCC1(C)C(=O)NCc1cc(Cl)ccc1F (stereo not drawn),inactive: -6.1%
13,Cc1ccc(S(=O)(=O)NN=C2C3CC4CC(C3)CC2C4)cc1[N+](=O)[O-],inactive: 14.7%
14,N#CCSc1ccc(S(=O)(=O)N2CCOCC2)cn1,inactive: 9.75%
15,Oc1[nH]c2ccccc2c1N=Nc1ccc(F)cc1,inactive: 19.4%
16,O=C(COC(=O)/C=C/c1ccc(S(=O)(=O)N2CCOCC2)cc1)Nc1ccc(F)c(F)c1F,inactive: 4.61%
17,Cc1ccc([C@@H]2C[C@H]3CN(Cc4cccc(Cl)c4)C(=O)[C@]34CCCN24)o1,inactive: 3.7%
18,COc1ccccc1N1C(=S)N=C(Nc2c(C)cccc2C)C12CCCC2,inactive: 17.8%
19,Cc1cc(C)c(S(=O)(=O)Nn2cnnc2)c(C)c1,inactive: 13.6%
20,COc1ccc(NC(=O)c2[nH]c(C)c(C(C)=O)c2C)cc1S(=O)(=O)Nc1ccc(Br)cc1,inactive: -5.65%
21,COc1cc2[nH]c(=O)n(CCC(=O)N3CCN(Cc4ccccc4)CC3)c(=O)c2cc1OC,inactive: 5.8%
22,CCC1CCCCN1CCCNC(=O)c1ccc(N2CCOCC2)c(NS(=O)(=O)c2ccc(OC)cc2)c1 (stereo not drawn),inactive: -3.69%

row,Structure (SMILES),growth rescue (activation)
1,O=C(NCc1ccccc1)C1CCCN(S(=O)(=O)c2ccc(-n3cnnn3)cc2)C1 (stereo not drawn),inactive: -1.08%
2,CCOc1ccccc1NC(=O)c1ccc(OCC)c([N+](=O)[O-])c1,inactive: 13.1%
3,C=CCSc1nnc(CC(OC)OC)n1-c1ccccc1,inactive: 10.8%
4,CCCCNC(=O)Cc1ccc(C)cc1,inactive: -0.41%
5,Cc1ccc(NC(=O)COc2ccc(-c3nn(C)c(=O)c4ccccc34)cc2)c(C)c1,inactive: 7.78%
6,CCOC(=O)Cc1c(C)nc2c(-c3cccc(Br)c3)cnn2c1C,inactive: 20.1%
7,CCCCOc1cccc(C(=O)Nc2ccc(NC(=O)c3cccs3)cc2)c1,inactive: 8.19%
8,Cc1cccc(C)c1OCC(=O)Nc1ccc(NC(=O)c2ccco2)cc1,inactive: 16.6%
9,O=C(O)c1ccc(S(=O)(=O)N2CCOCC2)o1,inactive: -6.1%
10,O=C(NCCNC(=O)c1cc(Cl)ccc1Cl)c1ccccn1,inactive: 11.7%
11,CCCCSc1nnc2c(n1)OC(c1ccc(C)s1)Nc1ccccc1-2 (stereo not drawn),inactive: -1.23%
12,CCOC(=O)/C(C#N)=C/c1cc2ccc(C)cc2nc1Cl,inactive: 27.5%
13,NS(=O)(=O)c1ccc(CCNC(=O)c2ccc(=O)[nH]c2)cc1,inactive: -15.2%
14,CC(C)CNS(=O)(=O)c1ccc(CCC(=O)NCc2ccco2)cc1,inactive: 30.3%
15,CC(=O)NC(CC(=O)NC1CCCc2ccccc21)c1ccccc1 (stereo not drawn),inactive: -11.1%
16,CCCNS(=O)(=O)c1cccc(C(=O)OCc2cc(=O)oc3cc(OC)ccc23)c1,inactive: 26.6%
17,COc1ccc(C2CC(=O)Oc3c2c(=O)n(C)c2ccccc32)c(OC)c1OC (stereo not drawn),inactive: 6.24%
18,COc1ccc(NC(=O)CSc2cn[nH]n2)c(OC)c1,inactive: -2.64%
19,O=C1CN(C(=O)COC(=O)CCNS(=O)(=O)c2ccc(Cl)cc2)c2ccccc2N1,inactive: 14.4%
20,CCc1ccc(NC(=O)CSc2nnc(-c3n[nH]c4ccccc34)n2-c2ccccc2)cc1,inactive: -6%
